# Test results taken from the supplement of paper PMC4604168 (melanoma cell lines).
# The list shows a part of the results. Many values rest on one well or one pass, so single values are uncertain.
# Tested on: RVH-421
# Experiment: cell count relative to DMSO control; melanoma cells; higher = more viable cells
# Details: library dose: standard library concentration; 72 h
# 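Further: cells treated in 1,536-well plates, then fixed and DAPI-stained, with nuclei counted from automated high-throughput microscope images.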
row,Compound,cell count
1,"O=C(O)c1ccc2c(c1)nc(Nc1cccc(Cl)c1)c1ccncc12 + C=CCn1c(=O)c2cnc(Nc3ccc(N4CCN(C)CC4)cc3)nc2n1-c1cccc(C(C)(C)O)n1 [MK1775] (first compound 2 µM, partner dose 0.1 µM)",65.5%
2,"O=C(O)c1ccc2c(c1)nc(Nc1cccc(Cl)c1)c1ccncc12 + COc1cc(N2CCC(N3CCN(C)CC3)CC2)ccc1Nc1ncc(Cl)c(Nc2ccccc2S(=O)(=O)C(C)C)n1 [NVP-TAE684] (first compound 2 µM, partner dose 0.4 µM)",82.9%
3,"O=C(O)c1ccc2c(c1)nc(Nc1cccc(Cl)c1)c1ccncc12 + Cc1cc([N+](=O)[O-])ccc1NS(=O)(=O)c1cc(Cl)ccc1Cl [FH535] (first compound 2 µM, partner dose 5 µM)",65%
4,"O=C(Nc1cc(C(F)(F)F)cc(C(F)(F)F)c1)c1cc(Cl)ccc1O + Cn1c(Nc2ccc(C(F)(F)F)cc2)nc2cc(Oc3ccnc(-c4ncc(C(F)(F)F)[nH]4)c3)ccc21 [CHIR265] (first compound 0.08 µM, partner dose 0.4 µM)",42%
5,"O=C(O)[C@@H]1[O][Sb](=[O])([O][Sb]2(=[O])[O][C@H]([C@H](O)CO)[C@H](O)[C@H](C(=O)O)[O]2)[O][C@H]([C@H](O)CO)[C@@H]1O (stereo not given in full) [stibogluconate] + COc1cc2ncnc(Nc3ccc(Oc4ccccc4)cc3)c2cc1OC [SrcI1] (first compound 10 µM, partner dose 10 µM)",106%
